Reference: the RNAGym collection of RNA variant scans (doi:10.1073/pnas.2313332121)
Variants at the background level are over-represented here.

B1: TPR 5TU (parent)
chain: GGAUCUUCUCGAUCUAACAAAAAAGACAAAUCUGCCACAAAGCUUGAGAGCAUCUUCGGAUGCAGAGGCGGCAGCCUUCGGUGGCGCGAUAGCGCCAACGUUCUCAACUAUGACACGCAAAACGCGUGCUCCGUUGAAUGGAGUUUAUCAUG

Variants of: B1
Test: polymerase ribozyme fitness, log enrichment relative to wild type (log ratio); higher = more active; in vitro selection for triplet polymerase activity
Outline: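 Mutant libraries for each subunit of a heterodimeric triplet polymerase ribozyme were made by PCR and then transcribed. Each library underwent one round of in vitro selection in triplicate: annealing with a biotinylated primer, the partner subunit and triplets, frozen incubation at −7 °C, gel excision of extended constructs, streptavidin-bead capture and RT-PCR. Input and output libraries were Illumina-sequenced, and only genotypes with ≥10 input reads and ≥1 read per output were kept. Fitness is the logarithm, base 2, of genotype enrichment over wild-type enrichment, computed from inverse-variance-weighted replicate averages.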

Polymerase ribozyme fitness (log ratio), ≤ -4.2:
GGAUCUUCUCGAUAGAACAAAAAAGUCAAAUCUGCCACAAAGCUUGAGAGCAUCUUCGGAUGCAGAGGCGGCAGCCUUCGGUGGCUCGAUAUCGCCAACGUUCUCAUCAAUGACAAGCAAAACGCGUGCUCCGUUGAAUGGAGUUUAUCAUG
GGAUCUUCUCGAUAUAACAAAAAAGACAAAUCUGCCACAAAGCUUGAGAGCAUCUUCGGAUGCAGAGGCGGCAGCCUUCGGUGGCGCGAUAGCUCCAACGUUCUCAGCUAUGACACGCAAAACGCGUGCUCCGUUGAAUGGAGUUUAUCAUG
GGAUCUUCUCGAUAGAACAAAAAUGACAAAUCUGCCACAAAGCUUGAGAGCAUCGUCGGAUGCAGAGGCGGCAGCCUUCGGUGGCGCGAUAACGCCAACGUUCUCAACUAUGACACGCAAAACGCGUGCUGCGUUGAAUGGAGUUUAUCAUG
GGAUCUUCUCGAUAUAACAAAAAAGACAAAUCUGCCACAAAGCUUGAUAGCAUCUUCGGAUGCAGAGGCGGCAGCCUUCGGUGGCGCGAUAGAGCCAACGUUCUCAGCUAUGACACGCAAAACGCUUGCUCCGUUGAAUGGAGGUUAUCAUG
GGAUCUUCUCGAUAUAACAAAAAAGACAAAUCUGCCACAAAGCUUGAGAGCAUCUUCCGAUGCAGUGGCGGCAGCCUUCGGUGGCGCGAUAGCGCCAAUGUUCUCAACUAUGACACGCAAAACGCGUGCUCCGUUGAAUGGAGUUUAUCAUG
GGAUCUUCUCGAUAUAACAAAAAAGACAAAUCUGCCACAAAGCUUGAGAGCAUCUUCGGAUGCAGAGGCGGCAGCCUUCGGUGGCGCGAUAGCGCCAACAUUCUCAACUUUGACACGCAAAACGCGUGCUCCGUUGAAUGGAGUUUAUCAUG
GGAUCUUCUCGAUAUAACAAAAAAGACAAAUCUGCCACAAAGCUUGACAGCGUCUUAGGAUGCAGAGGCAGCAGCCAUCGGUGGCGCGAUGGCGCCAACGUUCUCAACUAUGACACGCAAAACGCGUGCUCCGUUGAAUGGAGUUUAUCAUG
GGAUCUUCUCGAUAUAACAAAAAAGACAAAUCUGCCACAAAGCUUGAGAGCAUCUUCGGAUGCAGAGGCGGCAGACUUCGGUGGCGCGAUAGCGCCAACGUUCUCAACUAUGACACGCAAAACGCGUGCUCCGUUGAAUGGAGUUUAUCAUG
GGAUCUUCUCGAUAAAACAAAAAAGACAAAUCUGCUACAAAGCUUGAGAGCAUCAUCGGAUGCAGAGGCCGCAGCCUUCUGUGGCGCGAUAGCGCCAACGUGCUCAACUAAGACACGCAAAACGCGUGCUCCGUUGAAUCGAGUUUAGCAUG
GGAUCUUCUCGAUAUAACAAAAAAGACAAAUCUGCCACAAAGCUUGAGACAAUCUUCGGAUGCAGAGGCGACAGCCUUCGGUGGCUCGAUAGCGCCAACUUUCUCAACUAUGACACGCAAAGCGCGUGCUCCGUUGAAUGGAGUUUAUCAUG
GGAUCUUCUCGAUAUAACAAAAAAGACAAAUCUGCCACAAAGCUUGAGAGCAUCUUAGGAUGCAGAGGCGGCAGCCUUCGGUGGCGUGAUAGUGCCAACGCUCUCAACUAUGACACGCAAAACGCGUGCUCCGAUGAAUGCAGUUUAUCAUG
GGAUCUUCUCGAUAUAACAAAAAAGACAAAUCUUCCACAAAGCUUGAGAGCAUCUUCGGAUGCAGAGGCGGCACCCUUCGGUGUCGCGAUAGCGCCAACGUUCUCAACUAUGACACGCAAAACGCGUGCUCCGUUGAAUGGAAUUUAUCAUG
GGAUCUUCUCGAUAUAACAAAAAAGACAAAUCUGCCACAAAGCUUGAGAGCAUCUUCGGAUGCAGAGGCGGCAGCCUUCGGUGGCGAGAUAGCGCCUACGUUCUCAACUAUGACACGCAAAACGCGUGCUCCGUUGAAUGGAAUUUAUCAUG
GGAUCUUCUCGAUAUAACAAAAAAGACAAAUGUGGCACAAAGCUUGAGAGCAUCUUGGGAUGCAGAGGCGGCAGCCUUCGGUGGCGCGAUAACGACAACGUUCUCAACUAUGACACGCAAUACGCGUGCUCCGUUGAAUGGAGUUUAUCAUG
GGAUCUUCUCGAUAUAACAAAAAAGACAAAUCUGCCAUAAAGCUUGAGAGCAUCUUCGGAUGCAGAGGCGGCAGCCUUCGGUGGCGCGAUAGCGCGAACGUUCUCAACUAUGACACGCCAAACGCGUGCUCCGUUGAAUGGAGUUUAUGAUG
GGAUCUUCUCGAUAUAACAAAAAAGACAAAUCUGCCACAAAGCUUGAGACCAUCUUCGGAUGCAGUGGCGGCAGCCUUCGUUGGCGAGAUAGCGCCAACGUUCUCAACUAUGACACGCAAAACGCGUGCUCCGUUGAAUGGAGUAUAUCAUG
GGAUCUUCUCGAUAUAACAAAAAAGACAAAUCUGCCACAAAGCUUGAGAGCAUCUUCGGAUGCAGAGGCGGCAGCCUUCGGUGGCGCGAUAUUGCCAACGUUCUCAACUAUGACACGCAAAACGCGUGCUCCGUUGACUGGAGUUUAUCAUG
GGAUCUUCUCGAUAUAACAAAAAAGACAAAUCUGCCAUACAGCUUGAGAGCAUCUUUGGAUGCAGAGGCGGCAGGCUUCGGUGGCGCGAUAGCGCCAACGUUCUCAACUAUGACACGCAAAACGCGUGCUCCGUUGAAUGGAGUUUAUCAUG
GGAUCUUCUCGAUAUAACAAAAAACACAAAUCUGCCACAAAGCUUUAGAGCAUUUUCGGAUGCAGAAGCGGCAGCCUCCGGUCGCGCCAUAGCACCAACGUUCUCAAUUAUGACACGCAAAACGCGUGCUCCGUUGAAUGGAGUUUAUCAUG
